The RNAGym collection of RNA variant scans (doi:10.7554/elife.90254)
Read counts are not given, so values of variants with three or more changes are uncertain.

B1: LINE1-full (parent)
chain: UACGUAGGUGGUUUUCCCCUGAUAGUGCUAAGGGGGCCUGGAAGUUUGGACUGGGCAGAGCUCAACACAGCGUGGCAAAGUGGCUGUGGCUAGACUGCCUCUCUGGAUUCCUCGUCACUCAGCAGGGCAUCUCUGAGAGAAAUGCC

Variants of: B1
Assay: self-cleavage, relative activity (ratio to wild type); higher = more cleavage; in vitro, sequencing; the parent is a self-cleaving ribozyme
With G53A A79G U87C the self-cleavage was 0.18.
With U13C U15A G25U U39C the self-cleavage was 0.34.
A69U U100C G125A showed a self-cleavage of 0.13.
For C17A A43G A117G, the self-cleavage was 0.57.
In the case of A31U C37G U100A, the self-cleavage is reported as 0.95.
With U20C U62C G93A A141G the self-cleavage was 0.
In the case of U12C U23A U132C, the self-cleavage is reported as 1.84.
Work on G4A C98G C118U U143C yielded a self-cleavage of 0.18.
For A43G A67U U109C, the self-cleavage was 0.
G36A U112A A142G U143A gave a self-cleavage of 1.13.
U5A A42G A65U showed a self-cleavage of 0.37.
C56U A57C A69G U102A U109C U130C gave a self-cleavage of 0.
With U12G A43G U130C G144A the self-cleavage was 0.24.
Work on U15C A64G U112A yielded a self-cleavage of 0.45.
Variant A59G U119C A142G has a self-cleavage of 0.26.
For U13A U20C U45C U102C A141G, the self-cleavage was 1.43.
For A43G A64U U87C, the self-cleavage was 0.
Work on A64U A65G U115A yielded a self-cleavage of 0.02.
Variant C37G U102C U112C has a self-cleavage of 1.44.
In the case of A2G A67C U91C A138G, the self-cleavage is reported as 0.21.
U91C U112A A138G C146U showed a self-cleavage of 0.89.
Work on U15A U62C A142G yielded a self-cleavage of 0.21.
A2G U46C A78G U85C showed a self-cleavage of 0.37.
For U29C U134A U143C, the self-cleavage was 0.8.
In the case of U52A A59G A107G U108C, the self-cleavage is reported as 0.
Variant A2G C19U A50G A67U U85C A140G has a self-cleavage of 0.
Work on G35A U46C U52A yielded a self-cleavage of 1.12.
In the case of U39G U115C U119C, the self-cleavage is reported as 0.
In the case of U5C A31U A141G, the self-cleavage is reported as 0.86.
In the case of U45C U81A U102C, the self-cleavage is reported as 1.93.
Work on G72A U115C A124G U134C yielded a self-cleavage of 1.19.
U14G A42U U62C A138G showed a self-cleavage of 0.43.
For G7U U81C A136U, the self-cleavage was 1.67.
U47A G55A A57U A67U G88A U100C A107U gave a self-cleavage of 0.01.
Work on U62A U100C U109G U134C A142G yielded a self-cleavage of 0.
With A69G A78U U130A the self-cleavage was 1.02.
A43G A77G A117C A141U showed a self-cleavage of 2.41.
In the case of A22U A24G A142G, the self-cleavage is reported as 1.45.
Variant A31G G35A U62C U115C has a self-cleavage of 0.
In the case of A67U C116A U130A, the self-cleavage is reported as 0.1.
A42G U100A U132C A141G gave a self-cleavage of 1.04.
C17U A69G U87C gave a self-cleavage of 0.07.
For A94U U100C G105A, the self-cleavage was 0.46.
In the case of A2G U26C A31G, the self-cleavage is reported as 1.15.
In the case of C38U G54A G75A, the self-cleavage is reported as 0.6.
Work on A31C U62C U91C U108C G114A U130C yielded a self-cleavage of 0.
U29C A65G A136G gave a self-cleavage of 0.15.
Work on U20C A57U U102C yielded a self-cleavage of 0.08.
Variant U12C U20C G74U has a self-cleavage of 1.84.
For A24G U26C C120U, the self-cleavage was 1.59.
With U9C A79U U85A U102C the self-cleavage was 0.4.
Variant G10U A64U A67G has a self-cleavage of 0.11.
U20C U26G A31U A50G A92U G125U gave a self-cleavage of 0.26.
G27A U45C U47C showed a self-cleavage of 1.11.
Variant U5C U13A U45C A78G has a self-cleavage of 0.88.
Work on G21A U104C A141G yielded a self-cleavage of 1.23.
U47A U134C A140G showed a self-cleavage of 2.22.
A64G A65G A121U gave a self-cleavage of 0.53.
U1C A59C A77G U130C gave a self-cleavage of 1.62.
Work on A2G U46A U47G A129U yielded a self-cleavage of 0.8.
For A22G G49U U130G, the self-cleavage was 0.95.
For A31U U52A A67G U119C A136G, the self-cleavage was 0.
U13C C19U U112C A117G showed a self-cleavage of 1.17.
U45C A57G U81A A94G showed a self-cleavage of 0.14.
In the case of U1A U29A A50G C118U, the self-cleavage is reported as 0.76.
U20C G25A A92G A121G U143A showed a self-cleavage of 0.
In the case of A43G A94U U109C, the self-cleavage is reported as 0.14.
Variant G33A U45C U52A U108C has a self-cleavage of 1.39.
C3U U62C A117U A138G gave a self-cleavage of 0.13.
U15C U47C U52A A79G showed a self-cleavage of 1.67.
For U13C U73G A136G, the self-cleavage was 2.15.
A6U A22G A77G C95U gave a self-cleavage of 0.8.
Variant U13C A57G G86A U132C has a self-cleavage of 0.
In the case of G58U U85A U119C A141G, the self-cleavage is reported as 0.04.
With U14C U29C A64C the self-cleavage was 0.47.
U12C A77G U102C gave a self-cleavage of 2.4.
A6G U47G U87C gave a self-cleavage of 0.42.
For A6G G35U U47A A67G U91A U119C, the self-cleavage was 0.25.
C63U U87A U119C gave a self-cleavage of 0.01.
With G41A A79G A140G U143C C146A the self-cleavage was 1.3.
With U5C C38U A50G the self-cleavage was 0.5.
With C3A U29C G74A U96C the self-cleavage was 0.
C19U G75U A117G A142U gave a self-cleavage of 1.71.
In the case of U85C C128U U132A, the self-cleavage is reported as 0.12.
A57U A59G G106U A117U A142U gave a self-cleavage of 0.08.
Work on C28A A77C A94C A117G yielded a self-cleavage of 0.
For G53A A78G A79U U87C C123A, the self-cleavage was 0.08.
U12C G60A A69U U85A A138G showed a self-cleavage of 0.03.
Work on G54A A59U A140G yielded a self-cleavage of 0.29.
A42U A57U C128U A140G gave a self-cleavage of 0.04.
U20A C61U U112C showed a self-cleavage of 0.04.
In the case of U12C U14C U26C C63U U102A A140G, the self-cleavage is reported as 0.47.
With U15C U102C U115A A138G A141G the self-cleavage was 2.19.
With G36A U96A U112C the self-cleavage was 0.05.
In the case of C17A U39C G106U, the self-cleavage is reported as 0.71.
With C66G U81C A141G the self-cleavage was 0.04.
A2G U9A A22G A69G U134C gave a self-cleavage of 0.44.
For A2G C99U A117G A142G, the self-cleavage was 1.36.
U62C U100A U119G U132C showed a self-cleavage of 0.
A30G C71A A77G U134A gave a self-cleavage of 0.3.
With U62C C66U A121G the self-cleavage was 0.05.
Variant U12C U100C A138G has a self-cleavage of 1.46.
For U20A G75U A78G A79G, the self-cleavage was 0.53.
Variant A65G C66U A78G U96C A138G has a self-cleavage of 0.01.
Work on G10A A24G U108C yielded a self-cleavage of 1.31.
A42G A64U U115C U132C showed a self-cleavage of 0.68.
U13C U47C C145U showed a self-cleavage of 1.31.
A22G C28A G54A A79G showed a self-cleavage of 0.32.
With A22G C38A U119C A124G the self-cleavage was 1.
In the case of G86A G88A U96C, the self-cleavage is reported as 0.02.
In the case of U46A A57G A121G, the self-cleavage is reported as 0.91.
In the case of U46C U85A U132A, the self-cleavage is reported as 0.05.
Variant U13C G34A U52C G83A A117G has a self-cleavage of 0.51.
Variant U62A U109C C113A A129G A140G has a self-cleavage of 0.01.
For G7U A77G U85C, the self-cleavage was 0.48.
In the case of U13C U39C U100C U119C, the self-cleavage is reported as 0.
For U62C A69G A129G, the self-cleavage was 0.17.
In the case of G49U A57U A121C, the self-cleavage is reported as 0.08.
Variant U46A C116U A141G has a self-cleavage of 1.52.
Work on G33A A92G A121U yielded a self-cleavage of 0.09.
With U73A A92U A94G A121U the self-cleavage was 0.21.
With U12G G75C A140G the self-cleavage was 0.61.
With A42G A64U U96A the self-cleavage was 0.05.
With U15C U46A A65G G74A U96C U130C the self-cleavage was 0.06.
Work on U62C U96C A117U yielded a self-cleavage of 0.04.
U23C U47G A64C U96C showed a self-cleavage of 0.
In the case of G4A U26A G89C U130G A138G, the self-cleavage is reported as 0.08.
With G35A U45C C95U U115A C118U the self-cleavage was 0.04.
Variant U13C A31G A79G A92G A141G has a self-cleavage of 0.33.
Variant U15A U130A A141G has a self-cleavage of 1.29.
With A78G U132C A142G the self-cleavage was 1.73.
For G21U G32A U39A, the self-cleavage was 1.02.
With U62A A77G C131A the self-cleavage was 0.
U39C A138U A141G gave a self-cleavage of 1.85.
Variant U39C A92C A142G has a self-cleavage of 0.18.
In the case of A2G U13C A141G, the self-cleavage is reported as 0.98.
Work on C51A U112C C113U yielded a self-cleavage of 0.63.
For U1C U5C U29C G35A A42U A124U, the self-cleavage was 1.08.
For A2G U46C U96C A107G, the self-cleavage was 0.
C61A U108C U143C showed a self-cleavage of 0.07.
U12C U46C U73A U87A showed a self-cleavage of 0.08.
With A22G A30G A121G the self-cleavage was 1.21.
With A2G C37U G88A A142G the self-cleavage was 0.03.
With A6U U29A A107G the self-cleavage was 0.26.
For A107G A117G U134C, the self-cleavage was 2.3.
With A22G G35A G75C the self-cleavage was 0.47.
With U9C U12C A24U U45C the self-cleavage was 0.84.
U1A U13C A43G showed a self-cleavage of 1.26.
Variant A50U A65G A124U has a self-cleavage of 0.03.
For U45C U47C A141G, the self-cleavage was 2.3.
Variant G25A A77C A79U U132C has a self-cleavage of 0.63.
With A22G A43G A124G A136U the self-cleavage was 1.07.
With A31G C111U U134G the self-cleavage was 0.
A43G A65G G72C showed a self-cleavage of 0.
Work on C66A C76U U81A yielded a self-cleavage of 0.02.
In the case of A22G U26A A69G, the self-cleavage is reported as 0.56.
In the case of U26G U87G A140G, the self-cleavage is reported as 0.33.
In the case of A2G G49A A124G G135A C146U, the self-cleavage is reported as 0.16.
G44A U46A A77U U109A U112C A138G gave a self-cleavage of 1.17.
Work on U13C U100C U132A yielded a self-cleavage of 1.94.
For U23C A92G U102C, the self-cleavage was 0.
A43G U112A A129U showed a self-cleavage of 1.43.
Work on A2U U104A A140G yielded a self-cleavage of 0.71.
A31G A136U A142G showed a self-cleavage of 0.6.
In the case of G25A U45C U47C, the self-cleavage is reported as 0.82.
Variant G4A U73C U81C has a self-cleavage of 1.67.
Variant U45C A79G U109A G126A has a self-cleavage of 0.55.
